Reference: article PMC4336329 (PLoS ONE, 2015)
The whole screen tested about 310,000 compounds, of which about 14,000 (4.5%) showed an effect of 50% or more. The effect is printed as a negative number. This is one part of the list.

Target: human ether-à-go-go-related gene (hERG) potassium channel (human, UniProt Q12809)
Test: primary screen, population patch clamp on CHO cells stably expressing hERG
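Also: peak tail current of the secondary pulse compared with the same well before compound.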

Sequence of human ether-à-go-go-related gene (hERG) potassium channel (Q12809 whole entry, looked up): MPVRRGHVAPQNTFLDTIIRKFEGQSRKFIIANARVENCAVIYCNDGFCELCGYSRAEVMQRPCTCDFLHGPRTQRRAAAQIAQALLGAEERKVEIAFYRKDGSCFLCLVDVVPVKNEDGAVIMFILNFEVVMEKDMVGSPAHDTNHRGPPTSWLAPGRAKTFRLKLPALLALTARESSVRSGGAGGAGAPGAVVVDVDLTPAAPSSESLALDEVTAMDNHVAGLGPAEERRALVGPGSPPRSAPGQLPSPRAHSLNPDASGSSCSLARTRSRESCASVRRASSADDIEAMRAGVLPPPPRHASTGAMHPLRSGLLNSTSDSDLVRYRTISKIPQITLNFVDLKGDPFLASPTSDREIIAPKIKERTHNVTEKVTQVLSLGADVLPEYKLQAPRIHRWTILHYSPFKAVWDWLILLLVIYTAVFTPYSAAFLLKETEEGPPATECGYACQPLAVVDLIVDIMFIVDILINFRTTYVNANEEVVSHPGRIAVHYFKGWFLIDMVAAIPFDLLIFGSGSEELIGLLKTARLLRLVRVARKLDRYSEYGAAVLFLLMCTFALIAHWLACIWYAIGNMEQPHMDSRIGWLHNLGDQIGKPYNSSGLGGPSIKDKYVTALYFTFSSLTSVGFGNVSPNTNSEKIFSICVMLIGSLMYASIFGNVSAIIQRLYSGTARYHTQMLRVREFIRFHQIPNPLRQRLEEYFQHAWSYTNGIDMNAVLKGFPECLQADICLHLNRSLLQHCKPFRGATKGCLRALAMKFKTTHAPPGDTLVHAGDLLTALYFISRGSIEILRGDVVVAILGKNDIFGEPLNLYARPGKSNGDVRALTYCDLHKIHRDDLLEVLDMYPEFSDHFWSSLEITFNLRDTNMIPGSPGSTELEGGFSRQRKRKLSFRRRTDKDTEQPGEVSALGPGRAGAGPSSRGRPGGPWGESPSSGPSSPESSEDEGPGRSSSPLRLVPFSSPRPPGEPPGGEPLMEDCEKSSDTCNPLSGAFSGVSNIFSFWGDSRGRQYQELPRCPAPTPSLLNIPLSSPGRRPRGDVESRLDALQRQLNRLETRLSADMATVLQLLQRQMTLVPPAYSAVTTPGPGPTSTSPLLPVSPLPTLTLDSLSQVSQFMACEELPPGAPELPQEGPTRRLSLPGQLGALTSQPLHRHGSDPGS

Structure (SMILES) | hERG current change (%, negative = inhibition) at 10uM
CC(C)(C)c1ccc(-n2ncc3c2CCCC3NC(=O)CCn2cncn2)cc1 (stereo not drawn) | -31%
COc1ccc(/C(C)=N/NC(=O)c2cc(-c3cccnc3)nc3ccccc23)cc1 | 10.6%
Cc1ccccc1C(=O)Nc1ccnc(-c2ccncc2)n1 | 21.2%
S=C(Nc1ccccn1)NC1CCCCC1 | 12.9%
CC(C)NC(=O)C1CCN(Cc2cccc(Oc3ccccc3)c2)CC1.O=C(O)C(=O)O | -22.8%
CCN(CC)C(=O)[C@]1(c2ccccc2)C[C@@H]1CN.Cl | -6.32%
CCCCCCOc1ccc(N2C(=O)CC(SC(=NCC)NCC)C2=O)cc1 (stereo not drawn) | 20.9%
CC(C)c1cc(-c2n[nH]c(=S)n2Cc2ccccc2)cs1 | 17.8%
COc1ccc(OC)c(C(=O)COC(=O)C2CC3CCCC(C2)C3=O)c1 (stereo not drawn) | 1.45%
COc1ccc(C2c3c4c(n(C)c3CCN2C)CCN(C)C4c2ccc(OC)cc2)cc1.Cl (stereo not drawn) | -4.24%
O=C(c1ccncc1)N1CCN(S(=O)(=O)c2cccc(F)c2)CC1 | 7.6%
CCc1nnc(NC(=O)[C@@H](NC(=O)c2ccc(C(C)(C)C)cc2)C(C)C)s1 | -0.443%
CCCCN1C(=O)/C(=C2/Sc3ccccc3N2C)S/C1=N\c1ncn[nH]1 | 7.78%
CCCC(=O)N1CCN(c2nc3ccccc3s2)CC1 | -24.7%
Br.C=CCN1CCc2c(cc(O)c(O)c2Br)[C@@H](c2ccccc2)C1 | -30.4%
COc1cc(NS(=O)(=O)c2ccc(N)cc2)nc(OC)n1 | 9.57%
CC(C)(C)c1ccc(C(=O)N/C(N)=N/c2nc3ccccc3o2)cc1 | -9.62%
CCOc1ccccc1NS(=O)(=O)c1cc2c3c(c1)CC(=O)N3CCC2 | -11.2%
O=C(c1ccc(=O)[nH]c1)N(Cc1ccco1)C1(C(=O)NC2CCCCC2)CCCCC1 | -12.9%
Cc1ccc(-c2nc3sc(C(N)=O)c(N)c3c3c2CCCC3)cc1 | 7.88%
O=C(Oc1ccc2[nH]cc(CCN3C(=O)c4ccccc4C3=O)c2c1)c1ccco1 | 6.5%
CC(C)CNC(=O)CC(=O)N/N=C/c1cccs1 | 3.83%
O=C(c1cccnc1)N1CCN(C(=O)c2ccco2)CC1 | 9.05%

Structure (SMILES) | hERG current change (%, negative = inhibition) at 10uM
CC(/C=C1\SC(=O)N(CCCC(=O)O)C1=O)=C\c1ccccc1 | 12%
COc1ccc(Cl)cc1S(=O)(=O)NC(C)C(=O)NCc1ccc2c(c1)OCO2 (stereo not drawn) | 0.0796%
Cc1ccccc1NC(=O)CSc1nc2cc3c(cc2cc1C)CCC3 | 1.79%
NNC(=S)Nc1c(Br)cc(F)cc1Br | 5.92%
Cc1ccc(S(=O)(=O)NCc2c(-c3ccccc3)noc2C)cc1 | -29.5%
O=C(c1ccnc(Cl)c1)N1CCCC(N2CCN(c3ccccc3F)CC2)C1 (stereo not drawn) | -11.2%
CN(C)c1ccc(C(=S)N2CCN(S(=O)(=O)c3ccccc3)CC2)cc1 | 3.74%
Cc1nc(NC(=S)NC(=O)c2ccco2)sc1C(=O)N(C)C | 27.6%
CCn1cc(C(=O)NCc2ccc(OC)cc2)c(=O)c2ccc(C)nc21 | 22.1%
CC1CCN(CCc2nc3cc(NC(=O)COc4ccc(Cl)cc4)ccc3n2C)CC1 | -74.7%
O=C(CCCCCN1C(=O)CCC1=O)Nc1ccc(Cl)c(C(F)(F)F)c1 | -58.7%
O=C(CCNC(=O)c1ccccc1Cl)NCCCSc1ccccc1 | -8.64%
Cc1ccc(S(=O)(=O)CCC(=O)OCC(=O)N(C)CC(=O)Nc2ccc(F)cc2)cc1 | -21.5%
O=C(CCn1c(=O)[nH]c2ccccc2c1=O)N1CCN(c2cccc(C(F)(F)F)c2)CC1 | -43%
CCON1C(=O)C(C)(C)N(OCC)C(=O)C1(C)C | 13.2%
S=C(NC1CCCCC1)N1CCn2cccc2C1c1ccncc1 (stereo not drawn) | -10.1%
Cc1c(OCC(=O)N2CCC(C(N)=O)CC2)ccc2c3c(c(=O)oc12)CCC3 | 7.25%
CCCCC(c1nnnn1CS(=O)(=O)c1ccc(C)cc1)N1CCN(c2ccccc2)CC1.Cl (stereo not drawn) | 12.5%
Cn1c(=O)c(=O)n(C)c2cc(N3CCOCC3)c(NS(=O)(=O)c3ccc(F)c(Cl)c3)cc21 | -16.6%
CCCCc1c(O)nc(SCC(=O)N2CCOCC2)n(-c2ccccc2C)c1=O | 18.8%
O=C(Nc1ccccc1)C1=C[C@@H](c2csc3ccccc23)C[C@@H](OCc2ccc(CO)cc2)O1 | 14.8%
CCOC(=O)c1ccc(N=C2SC(C(=O)NC)CC(=O)N2CCc2ccccc2)cc1 (stereo not drawn) | -0.909%
